What is called IC50 is the concentration needed to halve the response being measured.

Molecules are shown by their SMILES. Where only a bound is given, the exact number is not on record here.

Test [1] deals with T1, K-Ras G12V (Homo sapiens, UniProt P01116, G12V). The test can be described thus: GTP-K-Ras (GppNp-K-Ras) and cRAF interaction assay, HTRF. The note with it: read-out: Biochemical assays, IC50, K-Ras G12V GppNp. The text has this: (§1) GppNp is an analog of GTP.
On the technique in general: In TR-FRET formats the signal depends on donor and acceptor labels being close together.

Test [2] deals with T2, K-Ras G12R (Homo sapiens, UniProt P01116, G12R). The test is described as above. As to conditions: read-out: Biochemical assays, IC50, K-Ras G12R GppNp.
Text: as §1

The next test addresses K-Ras G13D (Homo sapiens, UniProt P01116, G13D). The description is as above. As to conditions: read-out: Biochemical assays, IC50, K-Ras G13D GppNp.
Text: as §1

The target of test [3] is T3, K-Ras WT (Homo sapiens, UniProt P01116). The description is as above. The note with it: read-out: Biochemical assays, IC50, K-Ras WT GppNp.
Text: as §1

Test [4] deals with T4, K-Ras Q61H (Homo sapiens, UniProt P01116, Q61H). The description is as above. The note with it: read-out: Biochemical assays, IC50, K-Ras Q61H GppNp.
Text: as §1

The next test addresses K-Ras G12D (Homo sapiens, UniProt P01116, G12D). Described as above. The note with it: read-out: Biochemical assays, IC50, K-Ras G12D GppNp.
Text: as §1

The target of test [5] is T5, K-Ras G12C (Homo sapiens, UniProt P01116, G12C). Described as above. As to conditions: read-out: Biochemical assays, IC50, K-Ras G12C GppNp.
Text: as §1

Test [6] deals with T6, K-Ras G12A (Homo sapiens, UniProt P01116, G12A). Described as above. As to conditions: read-out: Biochemical assays, IC50, K-Ras G12A GppNp.
Text: as §1

Test [7] addresses T1, K-Ras G12V. The test can be described thus: SOS1 catalyzed nucleotide exchange assay (GDP form K-Ras), TR-FRET. As to conditions: read-out: Biochemical assays, IC50, K-Ras G12V GDP. As for the experimental part:
(§2) The parameters were F486: Excitation 340 nm, Emission 486 nm, Lag time 100 pas, Integration time 200 pas; F515: Excitation 340 nm, Emission 515 nm, Lag time 100 pas, Integration time 200 pas. TR-FRET ratios for each individual wells were calculated by equation: TR-FRET ratio=(Signal F515/Signal F486)*10000.

Test [8] has as its target T2, K-Ras G12R. The description is as above. As to conditions: read-out: Biochemical assays, IC50, K-Ras G12R GDP. As for the experimental part:
as §2

Test [9] deals with T3, K-Ras WT. Described as above. As to conditions: read-out: Biochemical assays, IC50, K-Ras WT GDP. The method, then: as §2
For test [10], the target named is T4, K-Ras Q61H. The description is as above. The note with it: read-out: Biochemical assays, IC50, K-Ras Q61H GDP. The method, then: as §2
The target in test [11] is T5, K-Ras G12C. The description is as above. As to conditions: read-out: Biochemical assays, IC50, K-Ras G12C GDP. As for the experimental part:
as §2

Test [12] deals with T6, K-Ras G12A. Described as above. As to conditions: read-out: Biochemical assays, IC50, K-Ras G12A GDP. As for the experimental part: as §2

In the case of `C=Cc1c(F)ccc2cc(O)cc(-c3ncc4c(N(C)[C@@H]5C[C@H]5F)nc(OC[C@@]56CCCN5C[C@H](F)C6)nc4c3F)c12.O=C(O)C(F)(F)F` (mixture of isomers) [Compound 16, 6-fluoro-4-(8-fluoro-4-((trans-2-fluorocyclopropyl)(methyl)amino)-2-(((2R,7aS)-2-fluorotetrahydro-1H-pyrrolizin-7a(5H)-yl)methoxy)pyrido[4,3-d]pyrimidin-7-yl)-5-vinylnaphthalen-2-ol 2,2,2-trifluoroacetic acid], the IC50 is 441 nM at K-Ras G12V [1]; 501 nM on K-Ras G12R [2]; 10.4 nM at K-Ras G13D; 400 nM on K-Ras WT [3]; 436 nM at K-Ras Q61H [4]; 90.5 nM on K-Ras G12D. Also, the 50% inhibitory concentration (IC50) at K-Ras G12C [5] is 731 nM; at K-Ras G12A [6], greater than 1000 nM; on K-Ras G12V [7], 3.81 nM; at K-Ras G12R [8] it was 5.74 nM; at K-Ras WT [9], 7.4 nM; on K-Ras Q61H [10], 4.51 nM. In addition, the values for the IC50 at K-Ras G12C [11] and at K-Ras G12A [12] were 5.21 nM and 10.7 nM, respectively.
As for `C#Cc1c(F)ccc2cc(O)cc(-c3ncc4c(N(C)C5CC5)nc(OC[C@@]56CCCN5C[C@H](F)C6)nc4c3F)c12` [Compound 1, 4-(4-(cyclopropyl(methyl)amino)-8-fluoro-2-(((2R,7aS)-2-fluorotetrahydro-1H-pyrrolizin-7a(5H)-yl)methoxy)pyrido[4,3-d]pyrimidin-7-yl)-5-ethynyl-6-fluoronaphthalen-2-ol], the concentration for half-maximal inhibition (IC50) turned out to be 204 nM at K-Ras G12V [1]; 10.1 nM on K-Ras G13D; 108 nM at K-Ras WT [3]; 50.2 nM at K-Ras G12D; 426 nM on K-Ras G12C [5]; 0.683 nM at K-Ras G12V [7]. Also, the results for the 50% inhibitory concentration (IC50) at K-Ras WT [9], at K-Ras G12C [11] and at K-Ras G12A [12] were 3.23 nM, 4.21 nM and 5.6 nM, respectively.
With `C#Cc1c(F)ccc2cc(O)cc(-c3ncc4c(N(C)[C@H]5C[C@@H]5F)nc(OC[C@@]56CCCN5C[C@H](F)C6)nc4c3F)c12` [Compound 3A, 5-ethynyl-6-fluoro-4-(8-fluoro-4-(((1S,2S)-2-fluorocyclopropyl)(methyl)amino)-2-(((2R,7aS)-2-fluorotetrahydro-1H-pyrrolizin-7a(5H)-yl)methoxy)pyrido[4,3-d]pyrimidin-7-yl)naphthalen-2-ol], the IC50 came out at 54.8 nM on K-Ras G12V [1]; 42.9 nM at K-Ras G12R [2]; 2.77 nM at K-Ras G13D; 77.9 nM at K-Ras WT [3]; 70 nM at K-Ras Q61H [4]; 22.2 nM at K-Ras G12D. In addition, the half-inhibitory concentration (IC50) stood at 122 nM at K-Ras G12C [5]; 149 nM at K-Ras G12A [6]; 1.97 nM at K-Ras G12V [7]; 1.04 nM at K-Ras G12R [8]; 0.707 nM on K-Ras WT [9]; 0.729 nM at K-Ras Q61H [10]. Moreover, the values for the IC50 on K-Ras G12C [11] and on K-Ras G12A [12] were 0.526 nM and 0.999 nM, respectively.
On to `C#Cc1c(F)ccc2cc(O)cc(-c3ncc4c(N(CC)[C@@H]5C[C@H]5F)nc(OC[C@@]56CCCN5C[C@H](F)C6)nc4c3F)c12.O=C(O)C(F)(F)F` (mixture of isomers) [Compound 6, 4-(4-(ethyl(trans-2-fluorocyclopropyl)amino)-8-fluoro-2-(((2R,7aS)-2-fluorotetrahydro-1H-pyrrolizin-7a(5H)-yl)methoxy)pyrido[4,3-d]pyrimidin-7-yl)-5-ethynyl-6-fluoronaphthalen-2-ol 2,2,2-trifluoroacetic acid], for which the IC50 at K-Ras G12V [1] amounted to 167 nM; at K-Ras G12R [2], 101 nM; on K-Ras G13D, 8.55 nM; on K-Ras WT [3], 218 nM; on K-Ras Q61H [4], 388 nM; at K-Ras G12D, 118 nM. The IC50 at K-Ras G12C [5] is 564 nM; at K-Ras G12A [6] it was greater than 1000 nM; on K-Ras G12V [7] it was 4.43 nM; on K-Ras G12R [8], 3.11 nM; at K-Ras WT [9] it was 4.24 nM; at K-Ras Q61H [10], 2.87 nM. Also, the IC50 on K-Ras G12C [11] turned out to be 3.03 nM; on K-Ras G12A [12], 6.09 nM.

(Values after US20240376128A1, “N-CYCLOPROPYLPYRIDO [4, 3-D] PYRIMIDIN-4-AMINE DERIVATIVES AND USES THEREOF” (Jacobio Pharmaceuticals Co., Ltd., priority 2021, published 2024).)
